The supplement of paper PMC11417369
The other results are listed elsewhere or left out.

What follows are sequences tested on PfHDP1 homeodomain (GST-tagged) (assay: gcPBM binding intensity (ln(normalized median fluorescence intensity)); higher = stronger DNA binding).
Outline: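 GST-fused DNA-binding domains of P. falciparum, expressed in E. coli, were applied at about 25 μg on average for 1 h to an Agilent 4 × 180k array of primer-extended double-stranded 36-bp intergenic genomic probes and negative controls. Binding intensity is the highest Masliner-normalised natural-log median intensity across replicate spots of either probe orientation, measured with Alexa488 anti-GST antibody and a 488 nm scan.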

Sequence | gcPBM binding intensity (ln)
TATATAAATAGACACACACACACCTTATAATTACTA [CACACA_site7828] | 6.71
ACATAAGACACAAATACACACAAAAATATGTAACAA [CACACA_site7836] | 6.68
TTTTATGAAAAGTATTGTACGTATAATTTATATGTA [XGTACX_site1639] | 6.21
TATGTATGTGCTTGTGCGCACCGATAATATAGCCAA | 8.81
TGCTATAATTTATATACACACAAATATATACGCATA [CACACA_site4096] | 6.6
TCTCATAGTAGACACACACACACACGCACATATATA [CACACA_site6916] | 7.29
TTCTTATAAATATACACACACAAAATATCTACAATG [CACACA_site6487] | 6.75
TGTGTAAGATCTTGGATGATGATAAGAATCTACTAG [CACACA_negctrl_site1167] | 6.16
CCTTAAAATAAGATATGTACGCAAAGGAAAACAAAG [XGTACX_site6057] | 7.09
TTATAAGATTTATGTACACACATATACTCACCTCTA [CACACA_site729] | 6.55
ACAAATACAAAAAAAGGTACACACATAATATATTTA [XGTACX_site5515] | 6.82
AATATAAATACTCCTACACACATATATATATATATA [CACACA_site3010] | 9.34
GACACAAAAAAATAATAATAATAATAATAATAAATA [XGTACX_negctrl_site145] | 6.27
AAATATTTTATACTTGCACACAAAATATATTAAAAT [CACACA_site8606] | 8.97
TTTGTTTTTAATTTCGCACACACCTTGTGGAAAAAA [CACACA_site577] | 7.02
AAAGGATTTATACTAGTGCAAAAATATAAAAATATA | 9.12
AATAATAAAGTGAACACACACATATAACATCTATAT [CACACA_site7868] | 6.51
AATGAATGTAAGAAAATACACACTAGTATAGTAACA [CACACA_site1955] | 6.63
TTGGAAAAAGTGAAATGTACATATATATTTATTATT [XGTACX_site6946] | 6.49

Sequence | gcPBM binding intensity (ln)
GAAGTTTTTTAAAGATGTACTTTTTAAAAATAATCT [XGTACX_site263] | 6.13
TTTGGCTAGTTAGGCCGTACATGTAAATAATATATA [XGTACX_site1138] | 6.99
TCCATATATGCCTTATGTACATATACCAAATTAACC [XGTACX_site6513] | 7.11
TAGCCATTTTTATATTGTACTTATATAATCACATTT [XGTACX_site4407] | 6.6
ATAAAAAAAAATAACACACAGACATAAGAATAAATA [CACACA_site4162] | 6.88
ATATAAGAAAAGCACACACACACAAAAAAAAAAAAA [CACACA_site2827] | 6.35
GACCACTTTAGGATTTGTACACATATTATATATGCA [XGTACX_site6579] | 6.97
TACACAAACAAACACACACACACACCCCCACAAAAA [CACACA_site2428] | 7.92
ATTAAAAAAAATATATATGTATAAAACAAGCAAAAT [XGTACX_negctrl_site474] | 6.99
TTTTGATAGAAGTGTTCTAGGAATTCAACTGTAATA [GTGCAC_negctrl_site585] | 6.17
TATAATAATAAAAACACACACGTTGATTGTATTAGC [CACACA_site5336] | 6.48
TATAATGATAATAATAGTACACATTAGAACGGGAGG [XGTACX_site2563] | 6.84
ATAATATTATTTAAAAGTACTAACAAAAGAATATTA [XGTACX_site4989] | 6.41
CCTATTATTTCTAAAACACACAAAAATATAAAAGAA [CACACA_site2708] | 6.98
TCTTTTTTTTATTATATCATTGAAATGTTAAAACGA [XGTACX_negctrl_site473] | 6.42
ATTAAAAAAATTGGCACACATAAAAATATATAAAAA [CACACA_site2748] | 6.65
AACAGATATGAATAGAAAAAAAAAAATGGCCCATAT [TGCATGCA_negctrl_site443] | 5.92
GTTTTTAATGTTTTGACATGCAATATTAAAAATAAT [TGCATGCA_site174] | 6.57
TGAAAAAAAAAATACACACACGAGTTGTTATACATA [CACACA_site7486] | 6.07

Sequence | gcPBM binding intensity (ln)
ATATACATATATATATGTACTTATTTATTTATTTAT [XGTACX_site2532] | 6.55
AAAAAGTGACTCCTTACACACTTTACATAATTTAGG [CACACA_site8176] | 6.32
CATACATACATACATACATGCATACATACATACATA [TGCATGCA_site218] | 7.46
TTTTTTTTCATTTTATGTACACATAATTTAATATAT [XGTACX_site5768] | 6.91
ATATATATATATATATGTACATATGTTTGTTTCCGC [XGTACX_site5167] | 9.16
GCAATTTTTTTTAAGAGTACTAATATATTATAGTGG [XGTACX_site7316] | 6.37
TTTTTTTAATAGTGTGCACACAATATACAGAAAAAA [CACACA_site8399] | 11
TATATATATGAACAATGTACGTATAATATTTTTATT [XGTACX_site7561] | 6.26
GATCTATACTATAATACACACATTTGATGAATGTAA [CACACA_site6163] | 6.75
ATATATATATATATATGTACACATAAAAAGAAAGAA [XGTACX_site1603] | 9.25
AACATTATATATTGCAGTACTCCCATATGTTGATAA [XGTACX_site3119] | 7.01
TATATACCTATATACACACACATATATTATAGATAT [CACACA_site6266] | 6.56
TTTAGTTGTGAGAATTGTACATATTTTCCTTTTACC [XGTACX_site7291] | 6.89
CTGTCTGCAGATATGGTGCATTTGTAAGATCTTACA [GTGCAC_site9870] | 10.3
TTCATAAAATGTGTCTGTACGTAAATGTATTACACT [XGTACX_site3179] | 6.29
TTTATATTTATGATGGGTACACAAAATTTTACCCAT [XGTACX_site1504] | 6.52
AATGTATAAATCCATACACACATAAATTTTAATAAT [CACACA_site2363] | 6.42
TATTTTTATAAGTAAAAGGAGCACAGTTAAAGGATC [XGTACX_negctrl_site362] | 7.62
TTATTATTAAAAAAAAGTACAGAATTGAATAATACA [XGTACX_site651] | 6.55
